Source: US20120094384A1, “USE OF COMPOUNDS FOR DIFFERENTIATION OF CELLS” (priority 2009, published 2012)

System: E14Tg2a cells (mouse embryonic stem cells)
Test: qPCR analysis of differentiation marker gene expression in embryoid bodies (EBs)
Conditions: 0.5 μM AO1530 and/or 3 μM tBHP; for Gene Expression Relative to Control: Nox 1: 100 ng/ml Activin A treated EBs
[1] = 100 ng/ml Activin A-treated EBs
[2] = Spontaneously differentiating EBs

Row | Compound | Gene Expression Relative to Control: Nox 1 | Nox 1 expression, fold change vs control [1] [fold] | Brachyury expression, fold change vs control (1 μM retinoic acid-treated EBs) [fold] | Cxcr 4 expression, fold change vs control (1 μM retinoic acid-treated EBs) [fold] | Foxa 2 expression, fold change vs control (1 μM retinoic acid-treated EBs) | Pax 6 expression, change vs control (1 μM retinoic acid-treated EBs) | Sox 1 expression, change vs control (1 μM retinoic acid-treated EBs) | Sox 17 expression, fold change vs control (1 μM retinoic acid-treated EBs) | Brachyury expression, fold change vs control [2] | Cxcr 4 expression, fold change vs control [2] [fold] | Gene Expression Relative to Control: Sox 17 [2] | Sox 1 expression, fold change vs control [2] | Sox 17 expression, fold change vs control [2] [fold] | Nox 1 expression, fold change vs control (1 μM retinoic acid-treated EBs) [fold] | Foxa 2 expression, change vs control [2] | Gene Expression Relative to Control: Sox 1 [2]
1 | CCCCCCCCCCc1ccc2c(=O)c(O)c(-c3cc(O)c(O)c(O)c3)oc2c1 [AO1530] | ↑ (up to 10 fold up-regulation of gene expression) | ~4.6 | ~0.3 | 2.3 | not observed | decrease in gene expression | decrease in gene expression | not observed | no apparent change in gene expression | ~1.4 | ↑ (up to 10 fold up-regulation of gene expression) | almost reduced to the base level | ~1.4 |  |  | 
2 | CC(C)(C)OO [tBHP, tert-butyl hydroperoxide, reference compound] | ↑ (up to 10 fold up-regulation of gene expression) | ~7.5 |  | ~3.8 | ~2 fold | increased gene expression | increased gene expression | ~2.3 fold | no apparent change in gene expression |  |  | ~2.8 fold |  | ~2.2 | decreased | ↑ (up to 10 fold up-regulation of gene expression)
